In PubChem BioAssay AID720542 (National Center for Advancing Translational Sciences (NCATS), 2013):
Among all 360,000 compounds or so, about 740 (0.21%) were called active. This list was built around the results that the source calls inconclusive (neither active nor inactive); the mix of calls is not that of the screen. Calls follow the shape of the dose curve; as a rule, active = well fitted inhibition curve with a large enough effect; inconclusive = small, poorly fitted or top-dose-only effect; inactive = no such curve, though single readings can be large or run the other way. No potency is given beside an inconclusive call; the fits are too rough.

system: Plasmodium falciparum AMA1 (3D7) - RON2 peptide interaction; assay: qHTS for Inhibitors of AMA1-RON; Towards Development of Antimalarial Drug Lead: Primary Screen; details: AlphaScreen AMA1-biotinylated RON2 peptide binding; activity change, negative = inhibition: at 58.2 µM (top of the series) unless noted; also: nearly all actives have a fitted effect of over 45% in size;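 as to activity change, negative = inhibition: 0% = vehicle wells and -100% = peptide control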
Summary of the method: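 AMA1 (3D7) with his tag at 25 nM final met compounds first, then biotinylated RON2 peptide at 25 nM; detection used donor plus acceptor beads, 10 µg/mL apiece, read by AlphaScreen after 30 min at room temperature.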
Potency is read from the fitted curve at half-maximal effect; tags tell the direction and shape of the fitted curve.

SMILES | Potency | activity change, negative = inhibition
O=C(NCCN1CCN(c2cccc(Cl)c2)CC1)c1ccc(CSc2nc3ccncc3[nH]2)cc1 | inconclusive [inhibitor, partial curve] | –
O=[N+]([O-])c1ccc(SNc2ccccc2)c([N+](=O)[O-])c1 | inconclusive [inhibitor, partial curve] | –
CNCCc1ccccn1 | inactive | –
O=C(Nc1ccn(CCCNCc2cccc3ccccc23)c(=O)n1)OCc1ccccc1 | inconclusive [inhibitor, full curve] | –
O=[N+]([O-])c1ccc(CN2CC=C(c3ccccc3)CC2)cc1 | inconclusive [inhibitor, partial curve] | –
CCN(CC)c1ccc(NC(=O)CN2CCN(c3ccccc3F)CC2)cc1 | inconclusive [inhibitor, single point] | –
Cc1ccc(OCCOC(=O)c2sc(=S)n(C)c2C)cc1 | inconclusive [inhibitor, single point] | –
O=C(Oc1ccc2ccccc2c1Cl)N1CCCC1 | inactive | –
CCN1CCN(CCOc2cccc(Oc3ccccc3)c2)CC1 | inconclusive [inhibitor, partial curve] | –
O=C(NCc1ccccc1)c1cc(C2CCCCN2S(=O)(=O)c2cccs2)on1 (stereo unspecified) | inactive | –
COc1ccc(C)cc1S(=O)(=O)N1CCN(C/C=C/c2ccccc2)CC1 | inconclusive [inhibitor, partial curve] | –
COc1ccc(OC)c(-c2cc(C3CCN(c4ncccc4[N+](=O)[O-])CC3)[nH]n2)c1 | inconclusive [inhibitor, single point] | –
O=C(O)Cn1cccc1C(=O)c1ccccc1 | inconclusive [inhibitor, single point] | –
COc1ccc(NC(=S)N2CCN(S(=O)(=O)c3ccccc3)CC2)cc1 | inactive | –
COc1ccc(C(=O)Nc2ccnn2C2CCN(Cc3ccccn3)CC2)cc1 | inactive | –
Cc1nc(S/C(=C/c2ccc(OCc3ccc(C(=O)O)cc3)cc2)C(=O)O)n[nH]1 | inconclusive [inhibitor, full curve] | –
CO/N=C/c1ccc(N2CCN(C(=O)c3cccc(C(F)(F)F)c3)CC2)c([N+](=O)[O-])c1 | inconclusive [inhibitor, partial curve] | –
CCOC(=O)c1c(-c2ccccc2)csc1NC(=O)CSc1nnnn1C | inactive | –
O=C(/C=C/c1ccc(Cl)cc1)c1ccc([N+](=O)[O-])o1 | inactive | –
CCCCCc1cc(=O)oc2c(C(CCN3CCCC3)c3ccc(N(C)C)cc3)c(OC)cc(OC)c12 (stereo unspecified) | active: 8.91 µM | –
NS(=O)(=O)c1ccc(NS(=O)(=O)/C=C/c2ccccc2)cc1 | inconclusive [inhibitor, full curve] | –
CCCCC1(CC(=O)OC)C(=O)N(c2ccccc2)N(c2ccccc2)C1=O | inactive | –
c1ccc(C[C@H]2CNCCN2CCCCC2CCCCC2)cc1 | inconclusive [inhibitor, full curve] | –
CC[C@H](C)C1OC(=O)[C@@H](C)[C@@H](CC)NC(=O)[C@H](C)N(C)C(=O)C(C)(C)C(=O)C(C)NC(=O)[C@H](Cc2ccc(OC)cc2)N(C)C(=O)[C@H](C(C)C)N(C)C(=O)CNC(=O)[C@H](CC(C)C)N(C)C(=O)CNC1=O (stereo partly specified) | inactive | –

SMILES | Potency | activity change, negative = inhibition
Cc1cccc(N2CCN(C(=O)CS(=O)(=O)Cc3nc(-c4ccccc4F)oc3C)CC2C)c1 (stereo unspecified) | inactive | –
CC(C)Sc1nc(N)c2c3c(sc2n1)CN(C)CC3 | inactive | –
CN1C[C@@H]2C(c3ccc(C(F)(F)F)cc3)C3(c4ccccc4)CC2(C3)[C@H]1c1ccccc1 (stereo partly specified) | inconclusive [inhibitor, single point] | –
Cc1ccccc1N=C1c2cc([N+](=O)[O-])ccc2-c2ncccc21 | inconclusive [inhibitor, single point] | –
O=c1nc(/C=C/c2ccc(O)c(O)c2)oc2ccccc12 | inconclusive [inhibitor, full curve, poor fit] | –
COCCNC(=O)c1ccccc1N(Cc1ccccc1)S(=O)(=O)c1ccccc1 | inconclusive [inhibitor, single point] | –
CC(=O)NC(c1ccco1)c1ccc2cccnc2c1O (stereo unspecified) | inconclusive [inhibitor, single point] | –
Cc1ccc(S(=O)(=O)N2CCCC2C(=O)Nc2nc3c(s2)CCCC3)cc1 (stereo unspecified) | inconclusive [inhibitor, full curve] | –
CN1CCN(Cc2oc(CO)cc(=O)c2O)CC1 | inconclusive [inhibitor, partial curve] | –
COc1ccc(-n2c(C)cc(C(=O)COC(=O)c3cc(NC(=O)c4cccs4)c(OC)c(OC)c3)c2C)cc1 | inactive | –
O=C(CCSc1nc(-c2ccc3c(c2)OCO3)cc(C(F)(F)F)n1)NCc1ccccc1 | inconclusive [inhibitor, single point] | –
CC(=O)Nc1ccc(NC(=O)COc2ccc(S(=O)(=O)N3CCCC3)cc2)cc1 | inactive | –
O=C(O)C1CCCCC1C(=O)Nc1ccc(Cl)cc1Cl (stereo unspecified) | – | inconclusive: -2.36% [inhibitor]
Cc1cc(F)ccc1S(=O)(=O)Nc1ccccc1C(=O)Nc1ccccc1-c1nc2ccccc2[nH]1 | inactive | –
CN(Cc1ccccc1Cl)C(=O)C1CC(=O)N(c2ccc3c(c2)OCCO3)C1 (stereo unspecified) | inactive | –
CCCc1nc2c(sc3nc4c(cc32)COC(C)(C)C4)c(=O)n1CCN(CC)CC | inactive | –
O=C(NC(Cc1ccccc1)C(=O)O)/C(=C/c1cccc([N+](=O)[O-])c1)NC(=O)c1ccco1 (stereo unspecified) | inactive | –
CCOc1ccc2c(c1)C(NC(C)=O)C(=O)N2CCN1CCOCC1 (stereo unspecified) | inconclusive [inhibitor, single point] | –
Cc1ccnc(NC(=O)Nc2ccc(Br)cc2Cl)c1 | inactive | –
CCOC(=O)c1ccc(NC(=S)N(Cc2cccnc2)Cc2ccco2)cc1 | inconclusive [inhibitor, partial curve] | –
COc1ccc(C(=O)/C=C/c2ccc(O)cc2)c(O)c1CC=C(C)C | inconclusive [inhibitor, single point] | –
Cc1cccc(NC2=NCC(=O)N2CCc2ccccc2)c1 | inconclusive [inhibitor, partial curve] | –
Cc1ccc(NC(=O)c2cc(-c3ccc(C)c(C)c3O)n[nH]2)cc1C | inactive | –
CC1=C(C)/C(=N\OS(=O)(=O)c2ccccc2)C=CC1=O | inconclusive [inhibitor, single point] | –

SMILES | Potency | activity change, negative = inhibition
COc1ccc(-c2csc(N(CCCN3CCOCC3)C(=O)c3ccco3)n2)cc1 | inconclusive [inhibitor, partial curve] | –
CN(C)c1ccc(NC(=O)Nc2nc(C(N)C3CCCCC3)cs2)cc1 (stereo unspecified) | inconclusive [inhibitor, partial curve] | –
CCn1cc(C(=O)Nc2ccccc2C(=O)OC)cn1 | inactive | –
COc1ccc(NC(=S)NCC2CCN(c3ccc(OC)cc3)C2)cc1 (stereo unspecified) | inconclusive [inhibitor, partial curve] | –
CN(c1ccccc1C(=O)NCC1CCCO1)S(C)(=O)=O (stereo unspecified) | inactive | –
C[C@@H]1CN(Cc2nc(-c3ccc(Cl)cc3)no2)C[C@H](C)O1 | inconclusive [inhibitor, partial curve] | –
COc1ccc(-n2cc(-c3ccccc3)c3c(N4CC(C)OC(C)C4)ncnc32)cc1 (stereo unspecified) | inconclusive [inhibitor, partial curve] | –
CCOC(=O)N/N=C/c1cc(C)n(-c2cccc3ccccc23)c1C | inactive | –
CC(=O)Nc1cc(-c2ccc(N3CCN(C)CC3)cc2)cn2c(-c3ccc(F)c(Cl)c3)cnc12 | inconclusive [inhibitor, partial curve] | –
Cc1ccc(C(=O)COC(=O)C2C3C=CC(C3)C2C(=O)OCC(=O)c2ccc(C)c(C)c2)cc1C (stereo unspecified) | inactive | –
Cc1ccc(C)c(S(=O)(=O)Nc2ccc3oc(C)c(C(=O)O)c3c2)c1 | inconclusive [inhibitor, full curve, poor fit] | –
COc1cccc2cc(C(=O)Nc3cc(C)cc(C)c3)/c(=N/NS(=O)(=O)c3ccccc3)oc12 | inactive | –
CN(C)c1ccc(N=c2sc3ccccc3n2C)cc1 | active: 23.8 µM | –
O=C(C1=COCCO1)N1CCN(C(c2ccccc2)c2ccccc2)CC1 | inconclusive [inhibitor, partial curve] | –
COc1ccc(N2CCN(c3cc(C)c4cccc(C)c4n3)CC2)cc1 | inconclusive [inhibitor, full curve, poor fit] | –
COc1ccccc1N1CCN(/N=C/c2cc(Br)ccc2F)CC1 | inconclusive [inhibitor, partial curve] | –
Cc1c(C(=O)OCC(=O)N(C)Cc2ccc(Cl)cc2)oc2ccccc12 | inactive | –
Cc1ccc(C(=O)N2CCN(c3ccc(N4CCOCC4)nn3)CC2)cc1C | inactive | –
CCSc1nc2cc(OC)c(OC)cc2c(=O)n1CC | inactive | –
Cc1ccc(C(=O)c2cc3c(cc2[N+](=O)[O-])OCCO3)cc1 | inactive | –
O=C(c1ccc([N+](=O)[O-])cc1)N1CCc2ccccc21 | inconclusive [inhibitor, partial curve] | –
COc1cc(NCCCCCCN)c2ncccc2c1OC | inconclusive [inhibitor, single point] | –
Cc1nc(SC2C=CS(=O)(=O)C2)n[nH]1 (stereo unspecified) | inconclusive [inhibitor, single point] | –
